Test results published in publication PMC6664820, “Novel natural and synthetic inhibitors of solute carriers SGLT1 and SGLT2” (Pharmacology Research & Perspectives, 2019).
Screen size: about 1,900 compounds; about 40 (2%) showed an effect of 50% or more. The list shows a part of the results. Residues, ends and D or L forms follow the SMILES beside them.

Biological target: human SGLT1 (hSGLT1) (human, UniProt P13866)
Assay: primary screen, percent of control activity; higher = less effect of the substance
Design: single well
Details: 50 µM
Method in brief: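 Single-point screen at 50 µmol/L in CHO-hSGLT1 cells, with 160 µmol/L 1-NBD-glucose in glucose-free DMEM for 90 min at 37°C. Fluorescence from isopropanol extracts was calibrated, and CHO wild-type uptake was subtracted. Data are percent of uptake without compound.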

Sequence of human SGLT1 (hSGLT1) (P13866 whole entry, looked up): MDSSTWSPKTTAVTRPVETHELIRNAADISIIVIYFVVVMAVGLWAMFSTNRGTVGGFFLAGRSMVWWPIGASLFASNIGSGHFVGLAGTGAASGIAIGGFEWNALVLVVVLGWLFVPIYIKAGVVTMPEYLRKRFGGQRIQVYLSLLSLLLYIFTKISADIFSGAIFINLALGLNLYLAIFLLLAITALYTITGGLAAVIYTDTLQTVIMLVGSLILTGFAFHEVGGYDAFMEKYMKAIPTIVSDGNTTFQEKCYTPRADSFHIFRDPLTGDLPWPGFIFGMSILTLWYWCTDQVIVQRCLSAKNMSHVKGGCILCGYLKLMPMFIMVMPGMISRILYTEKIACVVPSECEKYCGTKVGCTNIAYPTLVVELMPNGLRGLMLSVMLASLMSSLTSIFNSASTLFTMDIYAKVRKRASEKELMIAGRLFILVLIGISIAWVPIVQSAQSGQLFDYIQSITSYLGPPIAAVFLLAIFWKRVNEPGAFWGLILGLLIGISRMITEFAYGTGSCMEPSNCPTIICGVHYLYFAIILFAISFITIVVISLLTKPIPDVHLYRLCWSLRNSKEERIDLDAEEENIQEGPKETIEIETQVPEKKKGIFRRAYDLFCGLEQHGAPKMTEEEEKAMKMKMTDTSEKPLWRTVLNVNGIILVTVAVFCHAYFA

Compound | NORMALIZED SGLT1 ACTIVITY (%)
CCCCCCCCCc1ccc(O)cc1 | 107
CO/N=C(\C(=O)N[C@@H]1C(=O)N2C(C(=O)OCOC(=O)C(C)(C)C)=C(/C=C\c3scnc3C)CS[C@H]12)c1csc(N)n1 | 121
Cl.NCCCCC(=O)O | 123
CC(C(=O)O)c1ccc(-c2ccccc2)c(F)c1 (stereo not shown) | 243
CCCCCCOc1ccccc1C(N)=O | 235
C[C@]12CCC3c4ccc(O)cc4CCC3C1CC[C@@H]2O (stereo partly shown) | 128
C[N+]12CCC(CC1)C(OC(=O)C(O)(c1ccccc1)c1ccccc1)C2.[Br-] (stereo not shown) | 103
COc1ccc2c(c1O)-c1c(OC)c(OC)cc3c1[C@H](C2)N(C)CC3 | 84
N[C@@H](Cc1ccccc1)C(=O)N[C@@H](Cc1ccc(O)cc1)C(=O)O (H-Phe-Tyr-OH) | 112
COc1c2occc2cc2ccc(=O)oc12 | 464
CC1CCc2cc(F)cc3c(=O)c(C(=O)O)cn1c23 (stereo not shown) | 191
O=C(/C=C/c1ccccc1)c1ccc(O[C@@H]2O[C@H](CO)[C@@H](O)[C@H](O)[C@H]2O)cc1O | 106
Cc1cc(=O)c2c(O)c3c(cc2o1)OC(C)(C)CC3 | 138
CC1(C)[C@@H]2CC[C@@]1(C)C(=O)C2 | 108
C#C[C@]1(O)CCC2C3CCc4cc(O)ccc4C3CC[C@@]21C (stereo partly shown) | 99
CC(=O)Nc1ccccc1 | 112
Nc1ccc(C(=O)[O-])c(O)c1.[Na+] | 140
COc1ccc(-c2cc(=O)c3cc(OC)ccc3o2)cc1 | 109
COc1cc(OC)c2c(=O)c(-c3ccc4c(c3)OCO4)coc2c1 | 142
NC(Cc1ccc(Cl)cc1)C(=O)O (stereo not shown) | 82
CC(C)N1C(=O)c2ccccc2NS1(=O)=O | 115
CC(=O)c1c(O)c(C)c(O)c2c1OC1=CC(=O)C(C(C)=O)C(=O)C12C (stereo not shown) | 220
Nc1nc2c(ncn2[C@H]2C[C@H](O)[C@@H](CO)O2)c(=O)[nH]1 | 152
CC(C)[C@]12O[C@H]1[C@@H]1O[C@@]13[C@@]1(C)CCC4=C(COC4=O)[C@@H]1C[C@@H]1O[C@@]13C2=O | 125

Compound | NORMALIZED SGLT1 ACTIVITY (%)
C[C@@H]([C@H](O)c1ccccc1)N(C)C | 115
COc1ccc(-c2coc3c(OC)c(OC)cc(OC)c3c2=O)cc1 | 274
CC(C)=CCc1c(O)cc2occ(-c3ccc4c(c3)OCO4)c(=O)c2c1O | 135
COc1ccc2c(C)cc(=O)oc2c1 | 124
CC(COc1ccccc1)N(CCCl)Cc1ccccc1.Cl (stereo not shown) | 35
COc1ccc([C@@H]2CC(=O)c3c(O)cc(O[C@@H]4O[C@H](CO[C@H]5O[C@@H](C)[C@H](O)[C@@H](O)[C@H]5O)[C@@H](O)[C@H](O)[C@H]4O)cc3O2)cc1O | 96
CN(C)/N=N/c1[nH]cnc1C(N)=O | 99
COc1cc([C@@H]2c3cc4c(c(O)c3C[C@H]3COC(=O)[C@@H]32)OCO4)cc(OC)c1OC | 118
C[C@H](COc1ccccc1)N[C@H](C)[C@H](O)c1ccc(O)cc1.Cl | 119
CC(C)Cn1c(=O)n(C)c(=O)c2nc[nH]c21 | 114
CC(C)=CCCC1(C)C=Cc2c(O)c3c(c(CC=C(C)C)c2O1)OC12C(=CC4CC1C(C)(C)OC2(C/C=C(/C)C(=O)O)C4O)C3=O (stereo not shown) | 174
N.N.[Cl][Pt][Cl] | 90
O=C(/C=C/c1ccc(O)c(O)c1)OCCc1ccccc1 | 245
O=C(O)CC[N+](=O)[O-] | 90
NC(=O)c1cc[n+](CC2=C(C(=O)O)N3C(=O)[C@@H](NC(=O)[C@@H](c4ccccc4)S(=O)(=O)[O-])[C@H]3SC2)cc1 | 185
CCCCCCCCCc1ccc(OCCOCCOCCOCCOCCOCCOCCOCCOCCO)cc1 | 68
O=C(O)c1cn(C2CC2)c2cc(N3CCNCC3)c(F)cc2c1=O | 76
CC1(C)S[C@@H]2[C@H](NC(=O)[C@H](NC(=O)N3CCNC3=O)c3ccccc3)C(=O)N2[C@H]1C(=O)O | 100
Nc1nc(/C(=C/CC(=O)O)C(=O)N[C@@H]2C(=O)N3C(C(=O)O)=CCS[C@H]23)cs1 | 80
C=C1C(N)CC2CC1C2(C)C.Cl (stereo not shown) | 73
C=C1CCC(C2CC(=O)OC2=O)C(=O)CCC2C1CC2(C)C (stereo not shown) | 96
C[C@H]1OC(O[C@H]2[C@@H](O)CC(O[C@H]3[C@@H](O)C[C@H](O[C@H]4CC[C@]5(C)C6CC[C@]7(C)[C@@H](C8=CC(=O)OC8)[C@@H](O)C[C@]7(O)[C@@H]6CC[C@@H]5C4)O[C@@H]3C)O[C@@H]2C)C[C@H](O)C1O (stereo partly shown) | 90
c1ccc(-c2ccc(C(c3ccccc3)n3ccnc3)cc2)cc1 (stereo not shown) | 78
COc1cccc(-c2cc(=O)c3ccc(OC)cc3o2)c1 | 187

Compound | NORMALIZED SGLT1 ACTIVITY (%)
CC1(C)C2CC[C@]3(C)C(C(=O)C=C4[C@@H]5C[C@@](C)(C(=O)O)CC[C@]5(C)CC[C@]43C)[C@@]2(C)CC[C@@H]1O (stereo partly shown) | 339
CC(C)OC(=O)Nc1cccc(Cl)c1 | 256
Cc1cc(O)c2c(c1)C(=O)c1cccc(O)c1C2=O | 121
O=C(O)c1cc2cc(Cl)ccc2[nH]1 | 238
Cl.c1ccc(CC2=NCCN2)cc1 | 98
CC(=O)O[C@]1(C(C)=O)CC[C@H]2[C@@H]3C=C(Cl)C4=CC(=O)[C@@H]5C[C@@H]5[C@]4(C)[C@H]3CC[C@@]21C | 127
Cc1cc(OC(=O)c2c(C)cc(O)cc2O)cc(O)c1C(=O)O | 93
Cl.Cl.O=C(O)COCCN1CCN(C(c2ccccc2)c2ccc(Cl)cc2)CC1 (stereo not shown) | 141
CN1C(=O)CC[C@H]1c1cccnc1 | 84
N[C@@H]1CONC1=O | 67
CC(=O)OC1CN2CCC1CC2 (stereo not shown) | 94
CC(=O)N[C@@H](Cc1c[nH]c2ccccc12)C(N)=O | 93
N[C@@H](CCC(=O)N[C@@H](CS)C(=O)NCC(=O)O)C(=O)O | 92
CC(C)c1ccc2c(c1)CCC1[C@](C)(CN)CCC[C@]21C.O=S(=O)(O)O (stereo partly shown) | 104
C[C@]12CCC(=O)C=C1CCC1C2CC[C@@]2(C)C1CC[C@@H]2O (stereo partly shown) | 98
O=NN(CCCl)C(=O)NCCCl | 156
CC(=O)O[C@]1(C(C)=O)CCC2C3C[C@H](C)C4=CC(=O)CC[C@]4(C)C3CC[C@@]21C (stereo partly shown) | 118
COc1ccc2c(c1OC)OC[C@@H](c1ccc(OC)c(OC)c1OC)C2 | 131
CC(=O)Oc1ccccc1C(=O)O | 112
C=C(C)C1Cc2c(ccc3c(=O)c4c(oc23)COc2cc(OC)c(OC)cc2-4)O1 (stereo not shown) | 95
Cl.O=C(O)CCC1NCC2CC1CN1CCCCC21 (stereo not shown) | 120
C/C1=C\CCC(=O)C2CC(C)(C)C2CC1 (stereo not shown) | 93
CSc1ccc2c(c1)C(N1CCN(C)CC1)Cc1ccccc1S2.O=C(O)/C=C\C(=O)O (stereo not shown) | 115
COc1ccc(-c2c(OC)c3c(OC)c4c(cc3oc2=O)OC(C)(C)C=C4)cc1 | 68

Compound | NORMALIZED SGLT1 ACTIVITY (%)
CC(=O)Oc1c(-c2ccccc2)oc2c(CC=C(C)C)c3c(c(OC(C)=O)c2c1=O)C=CC(C)(C)O3 | 128
CN1CCc2c(c3ccccc3n2Cc2ccccc2)C1.O=S(=O)(O)c1cccc2c(S(=O)(=O)O)cccc12 | 69
N=C(N)NOCC[C@H](N)C(=O)O | 92
NC(=O)N1c2ccccc2C=Cc2ccccc21 | 132
CC(=O)[O][Cd][O]C(C)=O | 98
CC1(C)C2C[C@@H](O)[C@]3(C)C(CC[C@@]4(C)[C@H](c5ccoc5)OC(=O)[C@H]5O[C@]543)[C@@]2(C)[C@@H](O)C[C@H]1O (stereo partly shown) | 113
Oc1cc(O)c2c(c1)O[C@H](c1ccc(O)c(O)c1)[C@@H](O)C2 | 122
COC(=O)[C@@H]1OC(=O)C2OC23[C@@]1(C)CCC1[C@]2(C)C(C[C@H](O)[C@]13C)C(C)(C)[C@H](OC(C)=O)C[C@@H]2OC(C)=O (stereo partly shown) | 139
CCCN1C[C@H](CSC)C[C@@H]2c3cccc4[nH]cc(c34)C[C@H]21.CS(=O)(=O)O | 72
Cc1ccc(O)c(C(CCN(C(C)C)C(C)C)c2ccccc2)c1.O=C(O)C(O)C(O)C(=O)O (stereo not shown) | 78
CCN(CC)C(=O)c1cccc(C)c1 | 95
CCCCOc1cc(C(=O)NCCN(CC)CC)c2ccccc2n1.Cl | 74
O=C(O)[C@]1(O)C[C@@H](O)[C@@H](O)[C@H](O)C1 | 86
N#C/C(=C\c1cccc(O)c1)C(=O)O | 112
CC[C@H](C)[C@H](N)C(=O)N1CCC[C@H]1C(=O)N[C@H](C(=O)O)[C@@H](C)CC | 98
c1ccc2c3c([nH]c2c1)CNCC3 | 101
CC12CCC3c4ccc(OCc5ccccc5)cc4CCC3C1C[C@@H](O)[C@@H]2O (stereo partly shown) | 140
CNc1ccc(C(=O)CC(O)CCC(C)C2OC(=O)CC(O)CC(=O)CC(O)CC(O)CC(O)CC(O)CC3(O)CC(O)C(C(=O)OC)C(CC(O[C@@H]4O[C@H](C)[C@@H](O)[C@H](N)[C@@H]4O)/C=C/C=C/C=C/C=C/C=C/C=C/C=C/C2C)O3)cc1 (stereo partly shown) | 114
COc1ccc(-c2cc(=O)c3c(OC)c(OC)c(OC)c(OC)c3o2)cc1OC | 210
CC(C)(OC(=O)c1ccccc1)[C@@H]1Cc2cc3ccc(=O)oc3cc2O1 | 55
N[C@@H](Cc1cc(I)c(Oc2cc(I)c(O)c(I)c2)c(I)c1)C(=O)O | 256
C=CCc1ccccc1OCC(O)CNC(C)C.Cl (stereo not shown) | 74
